Data published in the supplement of paper PMC11417369.
This is one part of the list.

Test system: PfAP2-HC AP2 domain (GST-tagged)
Assay: gcPBM binding intensity (ln(normalized median fluorescence intensity)); higher = stronger DNA binding
Summary of the method: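 After 1 h on an Agilent 4 × 180k array of primer-extended double-stranded 36-bp intergenic genomic probes and negative controls, bound GST-tagged P. falciparum DNA-binding domains were detected with Alexa488 anti-GST antibody and scanned at 488 nm. The domains had been expressed in E. coli, and binding took place in 1× PBS with 1% milk, 0.2 mg/ml BSA, 0.5% salmon testes DNA and 0.03% Triton X-100. Binding intensity is the highest Masliner-normalised natural-log median intensity across replicate spots of either probe orientation.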

Sequence	gcPBM binding intensity (ln)
ATATATAACGTGCACACACACATTTACGTATGAATA [CACACA_site6948]	10
ATATATAATTTTTGCTGTACACAAAATATTAATTTA [XGTACX_site2057]	9.56
TTTTATTAAAACCACGCATGCAGAGGAAACGGTGAG [TGCATGCA_site1029]	9.78
TTCTGTATAATATAAAAACAAAAATTAAATTAAAAC [CACACA_negctrl_site81]	9.45
CATAAAATATAAAACACACACACATATATATATATA [CACACA_site223]	10.7
AAATTTTTTATTCTAATTAATATTTACACAATATAT [TGCATGCA_negctrl_site376]	9.68
TTCCATGTAGGACATGCATGCAGTTTTTAAAATATT [TGCATGCA_site481]	9.67
TATTATATAAATATACGTACATATACTAACCTTTTA [XGTACX_site6317]	9.57
ATATATACTATAATAGTGCATTAAAAAAGTAAAAAT	9.81
TAAAGAGAAATATGTACATGCGAAAATGCCTTAAAT [TGCATGCA_site1050]	9.67
TGAACAAAAAAAAATTGTACTTTTTTTTTAATATTT [XGTACX_site7172]	9.39
TTTCTTCGAAATAGAACACTTGTGCAAAATAAGCAA [XGTACX_negctrl_site361]	9.44
AAAAAAAACAATCTCATACACACTAGGGATTAATTA [CACACA_site1776]	9.82
ATTTTTTTATAAAATTTTTATATAATTTATTATAAA [GTGCAC_negctrl_site96]	9.3
AGACAATAATATAATCGTACAATAAATAAAATAAAA [XGTACX_site5231]	10
AAATATAATATACAAAGTACTTTTTCATCTTATATA [XGTACX_site8771]	9.62
AAAATAATCTTTTGATTGCACTGTTACATTTTTTCT [GTGCAC_site9563]	9.75
TTAAATGTTGGTTGTAGTACTCCATATGTTGTTTTA [XGTACX_site5312]	9.7
CTTATGTGCATACCTACACACTTACATATATATATA [CACACA_site8973]	9.85
TTTGGAATATTAATTGTGCACTTAAAAAGTTAATTA	9.47
TATATATATATAAGATGTACCCTTTGAAATAATAAT [XGTACX_site7215]	9.56
TGATACTGCAAAAAATATAAAAAAATAATAAAATAA [CACACA_negctrl_site791]	9.5
AACAAAAGTAATTAAAAACAATACAAACATATGTTT [XGTACX_negctrl_site220]	9.56
TGGATAAAATAAAAATGTACTTAACATTTATATTTT [XGTACX_site712]	9.38
AAATAATATAAACATACACACACACCGATATATATA [CACACA_site8945]	10.7
